Test results taken from PubChem BioAssay AID445 (National Center for Advancing Translational Sciences (NCATS), 2006).
About 40 (0.04%) of roughly 110,000 compounds were called active. Inconclusive results, whose numbers are uncertain, are shown with a selection of clear calls. Calls follow the shape of the dose curve; as a rule, active = well fitted curve in the direction sought with a large enough effect in the signal ratio (not every such curve was filed as active); inconclusive = small, poorly fitted or top-dose-only effect, or a change in a side signal; inactive = flat fitted curve, though single readings scatter; the % refers to the signal ratio. Potencies of inconclusive entries are doubtful fits and often do not repeat.

Experiment: IkB Signaling;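 as to IkBa stabilization activation: 0% = basal untreated cells and 100% = reference inhibitor full response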
Settings: ABC-DLBCL IkBa-CBG/CBR dual luciferase ratio (green luciferase fused to IkBa over red control in OCI-Ly3 lymphoma cells), 4 h; IkBa stabilization activation: at 57.1 µM (top of the series), scaled: untreated 0%, proteasome inhibitor 100% unless noted
Summary of the method: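 Luminescence ratio of IκBα-fused green versus native red beetle luciferase in OCI-Ly3 cells, 4 h post-doxycycline with compound; red signal alone, scaled from basal (0%) to zero light (-100%), flagged nonspecific or cytotoxic effects.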
Potency is read from the fitted curve at half-maximal effect.

Row | SMILES | IkBa stabilization activation | Potency
1 | COc1cc(C2c3c(oc4ccccc4c3=O)C(=O)N2Cc2ccccc2Cl)ccc1O (configuration not stated) | inconclusive: -7.36% [signal inhibitor] | 
2 | Cc1ccc2nc(-c3ccccc3)cc(C(=O)O)c2c1 | inconclusive: 9.44% [signal inhibitor] | 
3 | CN(C)c1ncnc2ccc(-c3cccnc3)cc12 | inactive: -3.84% [at 11.4 µM, scaled: untreated 0%, proteasome inhibitor 100%] | 
4 | Cc1ccc2nc(SCc3nc(-c4ccccc4C)no3)[nH]c2c1 | inconclusive: 3.31% [signal inhibitor] | 
5 | Cc1ccc(C(=O)CCNc2ccccc2)o1 | inconclusive: 2.58% [signal inhibitor] | 
6 | O=C(O)[C@@H]1[C@@H](C(=O)NCc2ccccn2)[C@@H]2C=C[C@@H]1O2 | inactive: 0.919% [at 11.4 µM, scaled: untreated 0%, proteasome inhibitor 100%] | 
7 | Cc1ccccc1Cn1c(Oc2ccccc2F)nc2c1c(=O)n(C)c(=O)n2C | inconclusive: 0.337% [signal inhibitor] | 
8 | CS(=O)(=O)N1CCc2cc(S(=O)(=O)Nc3ccc4oc5c(c4c3)CCCC5)ccc21 | inconclusive: 12.7% [signal inhibitor] | 
9 | Cc1ccc(NC(=O)Cn2c(=O)c(C(F)(F)F)nc3ccccc32)c(C)c1 | inactive: -1.34% | 
10 | Cc1ccc(N2CCN(C(=O)C3CCC(CNS(=O)(=O)c4ccc(Br)s4)CC3)CC2C)cc1 (configuration not stated) |  | inconclusive: 0.2 µM [signal inhibitor]
11 | O=C(Nc1ccc(Cl)cc1)c1ccc2c(c1)OCO2 | inactive: 10.7% | 
12 | COc1ccccc1NC(=O)c1ccccc1NC(=O)c1ccccc1 | inconclusive: 8.28% [signal inhibitor] | 
13 | COc1ccccc1-c1nccc(NCc2cccs2)n1 | inactive: 0.15% [at 11.4 µM, scaled: untreated 0%, proteasome inhibitor 100%] | 
14 | Cc1ccc(CN(C(=O)COc2ccc(C(C)(C)C)cc2)C2CCS(=O)(=O)C2)o1 (configuration not stated) | inconclusive: 1.64% [signal inhibitor] | 
15 | COc1ccc(-c2c3c(nc4sc(C(=O)Nc5ccc(Cl)cc5)c(N)c24)CC(C)(C)CC3=O)cc1 | inconclusive: 13.6% [signal inhibitor] | 
16 | CCOc1ccccc1NC(=O)CN(CCc1ccccc1)S(=O)(=O)c1ccc(C)cc1 | inactive: 0.88% | 
17 | O=c1c(CCc2ccccc2)nc2cnc(N3CCNCC3)nc2n1CCc1ccccc1 | inactive: -1.87% [at 11.4 µM, scaled: untreated 0%, proteasome inhibitor 100%] | 
18 | CCC(=NC(C)c1ccccc1)c1c(O)n(C)c(=O)n(C)c1=O (configuration not stated) | inconclusive: 19.3% [signal inhibitor] | 
19 | CCn1ccc2cc(S(=O)(=O)N3CCC(C(=O)NCCc4ccc(SC)cc4)CC3)ccc21 | inconclusive: 1.69% [signal inhibitor] | 
20 | CCc1cccc(C)c1NC(=O)CN1C(=O)c2c(c3ccccc3n2C)C1c1ccc(OC)cc1 (configuration not stated) | inconclusive: 2.48% [signal inhibitor] | 
21 | O=C1C(Cl)=C(N2CCOCC2)C(=O)N1c1cccc(Cl)c1 | inconclusive: 13% [signal inhibitor] | 

Row | SMILES | IkBa stabilization activation | Potency
22 | COc1ccc(-c2nc(CCNC(=O)c3cccs3)cs2)cc1OC | inconclusive: 0.0619% [signal inhibitor] | 
23 | CCOC(=O)Cc1nnc(NC(=O)c2ccccc2OCC)s1 | inactive: -4.2% | 
24 | CCN1C(=O)c2cccc3c(S(=O)(=O)Nc4ccccn4)ccc1c23 | inactive: 8.55% | 
25 | CCOc1ccc(C(=O)Nc2ccc(-c3nc4cc(C(C)C)ccc4o3)cc2)cc1Cl | inconclusive: 18.3% [signal inhibitor] | 
26 | CCc1cccc(NC(=O)c2nc(-c3ccncc3)no2)c1 | inconclusive: -0.906% [signal inhibitor] | 
27 | CCOC(=O)c1cccc(NC(=O)CN(c2ccc(OC)cc2)S(=O)(=O)c2c(C)noc2C)c1 | inconclusive: 4.95% [signal inhibitor] | 
28 | CCOC(=O)Cc1nnc2c(Nc3ccccc3F)nc3nonc3n12 | inconclusive: 3.78% [signal inhibitor] | 
29 | Cc1ccc(S(=O)(=O)c2cc3c(=O)n4ccccc4nc3n(CC3CCCO3)c2=N)cc1C (configuration not stated) | inactive: -0.873% | 
30 | Fc1cccc(NCc2cccn2-c2nnc(N3CCOCC3)s2)c1 | inconclusive: -0.48% [signal inhibitor] | 
31 | Cc1ccc(NCc2cccn2-c2nnc(N3CCC(C(=O)NCCc4ccccc4)CC3)s2)cc1 | inconclusive: -0.335% [signal inhibitor] | 
32 | CCN(CC)C(=O)c1sc2nc(-c3ccncc3)[nH]c(=O)c2c1C | inactive: -1.14% | 
33 | Cc1ccc2c(c1)N(C(=O)N1CCC(C(=O)NCCC3=CCCCC3)CC1)CC(C)O2 (configuration not stated) | inconclusive: 0.352% [signal inhibitor] | 
34 | Cc1c(C(=O)N2CCCC2)oc2c1-c1nn(CC(=O)NCc3cccc(F)c3)cc1CC2 | inconclusive: -2.21% [signal inhibitor] | 
35 | O=C(CCc1nc2cccnc2n1Cc1ccccc1)NCc1cccc(Cl)c1 | inactive: 0.016% | 
36 | O=C(Nc1cccc(Cl)c1)c1ccc2nc(Cc3ccccc3)oc2c1 | inconclusive: 6.63% [signal inhibitor] | 
37 | OCc1cnc(SCc2cccc(F)c2)n1Cc1ccc(F)cc1 | inactive: -0.285% | 
38 | N#Cc1cccc(NC(=O)N2CC[C@@]3(CCCN(C(=O)c4cccc(F)c4)C3)C2)c1 | inactive: -4.82% [at 11.4 µM, scaled: untreated 0%, proteasome inhibitor 100%] | 
39 | Cc1ncc(COC(=O)C(C)C)c2cc(C(=O)Nc3ccccc3C(F)(F)F)c(=O)oc12 | inconclusive: 1.67% [signal inhibitor] | 
40 | CCCCn1c(CNC(=O)C23CC4CC(CC(C4)C2)C3)nnc1SCC(=O)Nc1ccccc1 | inconclusive: 3.51% [signal inhibitor] | 
41 | CCOc1ccc(CCNc2ncnc3onc(-c4ccc(F)cc4)c23)cc1OCC | inconclusive: -1.79% [signal inhibitor] | 
42 | O=C(c1cnccn1)N1CCC[C@@]2(CCN(C(c3ccccc3)c3ccccc3)C2)C1 | inactive: 4.35% [at 11.4 µM, scaled: untreated 0%, proteasome inhibitor 100%] | 
